# Measured values: PubChem BioAssay AID463173 (ICCB-Longwood Screening Facility, Harvard Medical School, 2010)
# Hit rate of the full screen: of about 52,000 compounds, about 1,700 (3.3%) were called active. Rule as the data show it: active = survival mostly below about 52% (no sharp cut-off); inactive = mostly above about 56%. Some of the results follow.
# Test system: Wild type
# Assay: growth inhibition of S. aureus wild type versus tarO mutant, primary screen, teichoic acid synthesis inhibitors, RN4220, OD600 (AID 463173)
# Settings: S. aureus RN4220 wild type/DeltatarO growth, OD600, 18 h, active compounds read low, screened at 18.75 µg/mL (by protocol)
row,Compound,survival
1,CCCOc1ccc(-c2nn(-c3ccccc3)cc2C2NC(=O)NC(C)=C2C(=O)OC)cc1 (configuration not stated),inactive: 61%
2,CCc1ccc(C(=O)c2cn(CC(=O)Nc3cc(OC)ccc3OC)c3ccc(C)cc3c2=O)cc1,inactive: 75%
3,COc1ccc(C)cc1NC(=O)C1CCN(S(=O)(=O)c2ccc3c(c2)CCCN3C(C)=O)CC1,inactive: 68%
4,O=C(Nc1ccc(N2CCN(c3ccc(F)cc3)CC2)c(C(=O)O)c1)c1ccccc1F,inactive: 76%
5,CC1=C(C(=O)Nc2cccnc2)C(c2ccccc2)n2nc(SCc3ccccc3Cl)nc2N1 (configuration not stated),inactive: 140%
6,CCOC(=O)c1ccc(NC(=O)CSc2nc3ccccc3c(=O)n2CCNC(C)=O)cc1,inactive: 90%
7,CCc1ccc(NC(=O)CN2C(=O)C(c3ccc(F)cc3)=NC2(C)C)cc1,inactive: 82%
8,Cc1ccc(CCNC(=O)Cn2ncc3c([nH]c4ccc(C)cc43)c2=O)cc1,inactive: 131%
9,C=CCN1C(=O)/C(=C2/SC(C)=C(C)N2CC)SC1=Nc1c(C)n[nH]c1C,inactive: 93%
10,CCCCOc1ccc(Cn2c(=O)oc3ccc(C)cc32)cc1,inactive: 58%
11,COc1ccc(OC)c(NC(=O)CSc2cn(CC(=O)N3CCCCCC3)c3ccccc23)c1,inactive: 90%
12,Cc1cc(NC(=O)CSc2nnc(-c3cccs3)n2C)no1,inactive: 93%
13,CCCN(CCC)CCNC(=O)Cn1cc2c(n1)-c1c(oc(C(=O)N3CCCC3)c1C)CC2,inactive: 106%
14,Cc1cccc(-c2nnn3c2nc(NCCc2ccc(S(N)(=O)=O)cc2)c2ccccc23)c1,inactive: 92%
15,O=C(CS(=O)(=O)c1cccc2nsnc12)Nc1ccc(F)cc1,inactive: 113%
16,CC(=O)N(CCc1ccccc1)Cc1nc2ccccc2c(=O)[nH]1,inactive: 113%
17,N=c1nc(SCCC(=O)O)ss1,inactive: 112%
18,CCSc1ncc(Cl)c(C(=O)N(Cc2ccc(N(C)C)cc2)Cc2ccco2)n1,inactive: 115%
19,COCCNC(=O)c1ccc2c(c1)N(Cc1cc(C)ccc1C)C(=O)c1ccccc1S2(=O)=O,inactive: 84%

row,Compound,survival
1,COc1ccc(S(=O)(=O)N2CCN(c3ccc(Cl)c(Cl)c3)CC2)c2ccccc12,inactive: 148%
2,COC(=O)c1cc(S(=O)(=O)NCC2CCN(Cc3ccc(F)cc3)CC2)c[nH]1,inactive: 73%
3,COCCNC(=O)CSc1nc2cc3c(cc2c(=O)n1CCCC(=O)NCc1ccc(OC)cc1)OCO3,inactive: 66%
4,CCOc1ccc(Cn2c(-c3ccc(OCC)c(OC)c3)nc3ccccc32)cc1OC,inactive: 94%
5,Cc1cc(NCc2ccccc2Cl)n2cnnc2n1,inactive: 90%
6,Cc1cccc(NC(=O)c2cc(-c3ccc4c(c3)OCCO4)on2)c1,inactive: 78%
7,Cc1ccc(NC(=O)CSc2nc3ccccc3nc2Cc2ccccc2)c(C)c1,inactive: 135%
8,Cc1ccc(CNC(=O)C2CCCCN2S(=O)(=O)c2ccc(F)cc2)cc1 (configuration not stated),inactive: 91%
9,Cc1ccc(-c2nc(-c3cc4cccc(OCc5ccc(F)cc5)c4oc3=O)no2)cc1,inactive: 96%
10,CC(CO)(CO)N=Cc1c(O)[nH]c(=O)[nH]c1=O,inactive: 112%
11,Cc1ccc(NC(=O)CSc2nc(-c3ccc(C(C)(C)C)cc3)nc3cc(=O)[nH]n23)cc1C,inactive: 91%
12,COc1ccc(CNC(=O)C2CCN(S(=O)(=O)c3ccc(F)cc3)CC2)cc1,inactive: 88%
13,CSc1ncc(C(=O)Nc2cccc(C)c2C)c(-c2ccccc2)n1,inactive: 82%
14,COC(=O)c1ccc2c(c1)N(Cc1cc(C)ccc1C)C(=O)c1ccccc1S2,inactive: 60%
15,Cc1ccc(NCC(=O)N/N=C/c2ccncc2)cc1,inactive: 105%
16,Cc1nc(NC2CCN(Cc3nnnn3Cc3ccc4c(c3)OCO4)CC2)[nH]c(=O)c1C,inactive: 112%
17,CC(CNC(=O)c1ccc(CSc2nc3ccncc3n2Cc2ccc(F)cc2)cc1)c1ccccc1 (configuration not stated),inactive: 92%
18,Cc1oc(-c2ccccc2)nc1C(=O)O,inactive: 122%
19,CCN(c1ccccc1)S(=O)(=O)c1nnc(NC(=O)C(C)(C)C)s1,inactive: 74%

row,Compound,survival
1,CCN1CCc2nc3sc(C(=O)c4ccccc4)c(N)c3cc2C1,inactive: 71%
2,Cc1nc2nc(NCc3cccc(Cl)c3)[nH]n2c(=O)c1Cc1ccccc1,inactive: 85%
3,CCOc1ccc2nc(N3CCCC(C(=O)NCCCOC)C3)sc2c1 (configuration not stated),inactive: 79%
4,COc1ccc(-c2cc3ccc(O)c(CN4CCCC(C)C4)c3oc2=O)cc1 (configuration not stated),inactive: 127%
5,COC(=O)c1ccc(Cn2c(SCc3ccccc3F)nc3ccncc32)cc1,inactive: 74%
6,CCOc1ccc(CCNC(=O)Cn2c(=O)c3cccn3c3ccc(F)cc32)cc1OCC,inactive: 91%
7,Cc1ccc(Cl)cc1-n1ncc2c(NCc3ccc(F)cc3)ncnc21,inactive: 73%
8,C=CCn1c(SCC(=O)c2cccs2)nc2sc(C)cc2c1=O,inactive: 103%
9,COc1ccc(OCCn2c(C(C)Oc3ccccc3)nc3ccccc32)cc1 (configuration not stated),inactive: 72%
10,CC1C(=O)Nc2ccc(S(=O)(=O)NCc3ccc(N(C)C)cc3)cc2NC1=O (configuration not stated),inactive: 89%
11,CN(Cc1ccccc1)C(=O)c1cc2nc(-c3ccco3)cc(C(F)(F)F)n2n1,inactive: 108%
12,Cc1cc(NC(=O)CC(C)C)no1,inactive: 105%
13,COc1cccc(C(=O)c2cn(CC(=O)Nc3cccc(C(F)(F)F)c3)c3nc(C)ccc3c2=O)c1,inactive: 97%
14,CCN(CC)S(=O)(=O)c1ccc2c(c1)nc(CN(C)C(=O)Nc1cccc(Cl)c1)n2C,inactive: 112%
15,COc1ccc(Cn2c(CCC(=O)Nc3ccc(C)c(C)c3)nc3cccnc32)cc1,inactive: 93%
16,CCCN(CCC)C(=O)CN1C(=O)CSc2ccc(S(=O)(=O)N3CCC(C)CC3)cc21,inactive: 89%
17,CC(=O)N1CCc2cc(S(=O)(=O)NC(CC(C)C)C(=O)NCCc3ccc(C)cc3)ccc21 (configuration not stated),inactive: 75%
18,COc1ccc(-n2nnc(-c3nsc(NC(=O)c4cccs4)n3)c2C)cc1OC,inactive: 76%
19,CCS(=O)(=O)N1CC(=O)N(c2cc(C)ccc2C)C(C)(C(=O)NC2CCCCC2)C1 (configuration not stated),inactive: 59%
